Screen size: about 350,000 compounds; about 9,900 (2.8%) were called active. This list was built around the results that the source calls inconclusive (neither active nor inactive); the mix of calls is not that of the screen. The call rests on the fitted dose curve; in most records, active means well fitted activation curve with a large enough effect; inconclusive means small, poorly fitted or top-dose-only effect; inactive means no such curve, though single readings can be large or run the other way. Potencies of inconclusive entries are left out as doubtful fits. Where a structure was tested more than once in an assay, its records may differ in their call.
experiment: A quantitative high throughput screen for small molecules that induce DNA re-replication in MCF 10a normal breast cells.; further: nearly all actives have a fitted effect of over 50% in size; on activity, positive = re-replication: % of control where 0% means no effect; settings: MCF 10A DNA re-replication, Hoechst nuclear intensity, 48 h; activity, positive = re-replication: at 46.1 µM (top of the series)
Potency means the concentration at half of the fitted maximal effect; tags describe the fitted curve by direction and shape.

Row | Structure (SMILES) | Potency | activity, positive = re-replication
1 | O=C(CSc1cccc2cccnc12)N/N=C/c1cccnc1 | inconclusive [activator, single point] | –
2 | Cc1cc(C)c(OCC(=O)Nc2nc(-c3ccccn3)cs2)c(C)c1 | – | inactive: -16.1%
3 | O=C(Nc1ccon1)c1ccc(S(=O)(=O)N2CCOCC2)cc1 | – | inactive: -2.58%
4 | COc1ccc(C(=O)c2ccc(Cl)cc2)c2ccccc12 | active: 9.2 µM | –
5 | CCn1c(SCC(=O)Nc2nc3c(s2)CCCC3)nnc1-c1ccccc1 | inconclusive [activator, partial curve, poor fit] | –
6 | Cc1cccc(N2CCN(C(=O)c3cc4n(n3)C(C(F)(F)F)CC(c3ccco3)N4)CC2)c1C (stereo unspecified) | inconclusive [activator, single point] | –
7 | COc1cc(-c2nc3cc(C)ccn3c2NC2CCCCC2)ccc1-c1ccc(C(C)=O)cc1 | inconclusive [activator, partial curve, poor fit] | –
8 | Cc1nc(NC(=O)c2ccco2)sc1C(=O)Nc1ccc(Br)cc1 | active: 23.1 µM | –
9 | CCOc1ccccc1-n1c(SCC(=O)Nc2ccc(CC)cc2)nc2n[nH]c(C)c2c1=N | active: 8.2 µM | –
10 | Cc1ccc(-c2nc3c(c(=O)[nH]c(=O)n3Cc3ccccc3)n2Cc2ccccc2)o1 | inconclusive [activator, partial curve, poor fit] | –
11 | CCOc1cc(C#N)c(NC(=O)c2cccnc2)cc1OCC | active: 3.66 µM | –
12 | c1ccc(CCC2CCCCN2Cc2cn[nH]c2-c2cc3ccccc3o2)nc1 (stereo unspecified) | inconclusive [activator, single point] | –
13 | CC(=O)N(CCC(Cc1ccccc1)c1ccc2c(c1)OCO2)Cc1ccccc1F (stereo unspecified) | inconclusive [activator, single point] | –
14 | NC(=O)CSc1ncnc2c1oc1ccccc12 | inconclusive [activator, single point] | –
15 | CCOc1ccc(NC(=O)CCC(=O)NNC(=O)c2ccccc2Cl)cc1 | – | inconclusive: -33.5% [activator]
16 | Cc1ccccc1OCc1n(CC(=O)OC2CC(C)CCC2C(C)C)c2ccccc2[n+]1C (stereo unspecified) | active: 1.84 µM | –
17 | COCCNC(=O)Cn1cnc2ccc(S(=O)(=O)N3CCC(C)CC3)cc2c1=O | inconclusive [activator, single point] | –
18 | O=C(NC(Cc1ccccc1)C(=O)O)/C(=C/c1ccc(Br)cc1)NC(=O)c1ccc(Br)o1 (stereo unspecified) | inconclusive [activator, partial curve, poor fit] | –
19 | Cc1oc(-c2ccc(F)cc2)cc1-c1nn2c(-c3ccoc3C)nnc2s1 | inconclusive [activator, partial curve, poor fit] | –
20 | Cc1cc(C)cc(C(=O)Nc2ccc(N3CCN(S(C)(=O)=O)CC3)cc2)c1 | inconclusive [activator, partial curve, poor fit] | –
21 | Cc1cc(NC(=O)c2cc3ccccc3o2)no1 | – | inactive: 1.92%
22 | Cc1ccc(F)cc1NC(=O)c1ccc(NS(=O)(=O)c2ccc(Br)s2)cc1 | inconclusive [activator, single point] | –
23 | O=C(CN1C(=O)S/C(=C\C=C\c2ccccc2)C1=O)Nc1ccc(O)cc1 | – | inactive: 2.09%
24 | CCCn1c(SCC(=O)NCc2ccc(C)cc2)n[nH]c1=O | – | inactive: 3.19%

Row | Structure (SMILES) | Potency | activity, positive = re-replication
25 | CCn1c(SCC(=O)c2ccc(O)c(O)c2)nnc1-c1ccc(C)cc1 | inconclusive [activator, full curve] | –
26 | CCc1ccc(/C(C)=N/NC(=O)c2ccccn2)cc1 | inconclusive [activator, partial curve, poor fit] | –
27 | CC(NC(=O)CN1C(=O)NC2(CCCCCCC2)C1=O)c1ccccc1 (stereo unspecified) | – | inactive: -3.3%
28 | Cc1nc2cc3c(cc2c(C)c1C(=O)OC(C)C)OCO3 | – | inactive: 4.82%
29 | CCN(c1cc(C)cc(C)c1)S(=O)(=O)c1nnc(NC(=O)C(C)(C)C)s1 | inconclusive [activator, single point] | –
30 | CCOC(=O)c1cnc2ccc(C)cc2c1OCc1cc(F)cc(F)c1 | – | inactive: 10.7%
31 | Cc1cc(C(=O)CN2C(=O)NC3(CCCCC3)C2=O)c(C)n1-c1ccc2c(c1)OCO2 | inconclusive [activator, partial curve, poor fit] | –
32 | Cc1ccc(S[C@@H](CCN2CC[C@H](C)CCC2=O)c2ccccc2)cc1 | inconclusive [activator, single point] | –
33 | Cc1nc2cc(Cl)ccc2c(=O)n1Cc1ccncc1 | – | inactive: 0.0245%
34 | COc1ccc(-c2nnc(SCc3c(C)noc3C)n2N)cc1OC | – | inactive: 15.5%
35 | COCCCNC(=O)c1c(N)n(-c2ccc3c(c2)OCO3)c2nc3ccccc3nc12 | active: 10 µM | –
36 | CC(C)(C)c1nc(SCC(=O)c2ccccc2)c2ccccc2n1 | inconclusive [activator, single point] | –
37 | O=C(CSc1nccn1Cc1ccco1)Nc1ccccc1C(F)(F)F | – | inactive: 1.85%
38 | COc1cc(Cl)c(C)cc1NC(=O)CN(C)Cc1cccc(OC)c1OC | inconclusive [activator, single point] | –
39 | CCCCNC(=O)c1cc2c(=O)n3cccc(C)c3nc2s1 | inconclusive [activator, single point] | –
40 | C#Cc1ccc([C@H]2C=C(C(=O)N3CCOCC3)O[C@@H](OCc3ccc(CO)cc3)C2)cc1 | inconclusive [activator, partial curve, poor fit] | –
41 | O=C(NCCc1ccccc1)c1ccc2nccnc2c1 | – | inactive: -11.1%
42 | COc1ccc2c(c1)C(C)=CC(C)(C)N2S(=O)(=O)c1ccc(NC(C)=O)cc1 | inconclusive [activator, full curve, poor fit] | –
43 | CC(C)[C@H](NC(=O)c1ccc(C(C)(C)C)cc1)C(=O)N1CCN(Cc2ccc3c(c2)OCO3)CC1 | active: 18.4 µM | –
44 | CCn1c(COc2ccccc2C)nnc1SCC(=O)CC(=O)Nc1ccccc1 | inconclusive [activator, partial curve, poor fit] | –
45 | Brc1ccc([C@H]2CN3CCSC3=N2)cc1 | – | inactive: -2.27%
46 | CCCC(OC(=O)CC1Sc2ccccc2NC1=O)C(=O)NCc1ccco1 (stereo unspecified) | inconclusive [activator, single point] | –
47 | CCN1CCN(Cc2ccc(NC(=O)c3ccc(C)c(NC(=O)c4csc(-c5ccncc5)n4)c3)cc2C(F)(F)F)CC1 | inconclusive [activator, single point] | –
48 | Cc1c(C(=O)/C=C/c2cccs2)oc2ccc(F)cc12 | inconclusive [activator, single point] | –

Row | Structure (SMILES) | Potency | activity, positive = re-replication
49 | O=C(Nc1cccc(O)c1)c1cc(-c2ccc3c(c2)OCO3)on1 | – | inactive: 1.7%
50 | Cc1ccnc(NS(=O)(=O)c2ccc(NC(=O)C3CCCNC3=O)cc2)n1 (stereo unspecified) | inconclusive [activator, single point] | –
51 | Cc1ccccc1CNC(=O)COc1ccccc1 | inconclusive [activator, single point] | –
52 | CCC(C)(C)n1nnnc1C(c1ccc2ncccc2c1)N1CCCCCC1 (stereo unspecified) | – | inactive: 6.81%
53 | CCC(=O)Nc1nnc(SCc2ccccc2F)s1 | inconclusive [activator, single point] | –
54 | O=C(/C=C/c1ccccc1)NC(=S)NNC(=O)Cc1cccs1 | inconclusive [activator, partial curve, poor fit] | –
55 | CCOC(=O)[C@@H]1[C@H]2COc3cc(OC)ccc3[C@@H]2N2C(=O)N(c3ccc(F)cc3)C(=O)[C@@]12C | – | inactive: 12.8%
56 | O=C(Nc1ccc(OC(F)F)cc1)c1ccccn1 | – | inactive: -0.108%
57 | Nc1nc(SCC(=O)C23CC4CC(CC(C4)C2)C3)n[nH]1 | – | inactive: -17.2%
58 | Cc1ccc(C)c(S(=O)(=O)Nc2ccc3scnc3c2)c1 | inconclusive [activator, single point] | –
59 | C=CCN1C(=O)CS/C1=N\N=C\c1cccc([N+](=O)[O-])c1 | inconclusive [activator, partial curve, poor fit] | –
60 | CCSc1ncc(/C=N/Nc2ccc([N+](=O)[O-])cc2)n1C | inconclusive [activator, partial curve, poor fit] | –
61 | Cc1ccccc1Cc1c(C)nc2nc(SCC(=O)NCCCN3CCCCC3)nn2c1C | inconclusive [activator, single point] | –
62 | CCn1cc(S(=O)(=O)c2ccc(OC)cc2)c(=O)c2cc(OC)ccc21 | – | inactive: 5.87%
63 | CC(C)c1ccccc1NC(=S)NC(=O)C1CCCCC1 | – | inactive: -0.903%
64 | O=C(Nc1nc(-c2cccs2)c(-c2ccccc2)s1)c1ccco1 | inconclusive [activator, single point] | –
65 | CCn1c(/C(C#N)=C(\O)CCc2ccccc2)nc2ccccc21 | inconclusive [activator, partial curve, poor fit] | –
66 | O=C(CCCCn1c(=O)[nH]c2ccsc2c1=O)NCc1cccnc1 | inconclusive [activator, partial curve, poor fit] | –
67 | O=C(c1ccc(NS(=O)(=O)c2cccc3cccnc23)cc1)N1CCCCC1 | – | inactive: 0.878%
68 | COc1cccc(CNC(=O)C2CCCN(c3ncnc4c3nc3n4CCCCC3)C2)c1 (stereo unspecified) | inconclusive [activator, single point] | –
69 | COc1ccc(OC)c(S(=O)(=O)Nc2cccc3ccc(O)cc23)c1 | – | inactive: 5.77%
70 | COCCN1C(=O)N(c2ccc(OC)cc2)C(=O)C1CC(=O)Nc1cccc(F)c1 (stereo unspecified) | active: 0.92 µM | –
71 | O=C(Nc1ccc2nc(-c3cccs3)[nH]c2c1)c1ccco1 | – | inactive: 16.8%

Source: PubChem BioAssay AID624296 (National Center for Advancing Translational Sciences (NCATS), 2012)
